Test results: PubChem BioAssay AID493208 (National Center for Advancing Translational Sciences (NCATS), 2011)
The whole screen tested about 44,000 compounds, of which about 340 (0.77%) were called active. Another 5% or so got no clear call; they are omitted. Calls follow the shape of the dose curve; as a rule, active = well fitted inhibition curve with a large enough effect; inconclusive = small, poorly fitted or top-dose-only effect; inactive = flat fitted curve, though single readings scatter. Some of the results follow.

Experiment: Acumen qHTS Assay for Inhibitors of the mTORC1 Signaling Pathway in MEF (Tsc2-/-, p53-/-) Cells: Sytravon;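 also: plate controls were DMSO for no effect and rapamycin for full effect; nearly all actives have a fitted effect of over 50% in size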
Conditions: phospho-rpS6 immunofluorescence/PI, 24 h; series mostly up to 38.3 µM; activity change, negative = inhibition: at the top concentration
Method in brief: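 Compounds act on Tsc2-/-, p53-/- fibroblasts carrying an empty vector for 24 h before fixation and dual staining for phospho-S6 and DNA (propidium iodide). Values are percentages of cells above a rapamycin-defined pS6/PI threshold.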

Activity change, negative = inhibition, inactive:
CC(C)CN(CCNC(=O)c1cc(=O)[nH]c2ccc(S(=O)(=O)N3CCCCCC3)cc12)CC(C)C 7.98%
Cc1ccc(C)c(OCCOCCn2c(-c3ccc(Br)cc3)nc3ccccc3c2=O)c1C -26.1%
Cc1cccc(Cn2c(CNS(=O)(=O)c3ccc(Cl)s3)nc3cccnc32)c1 -5.67%
Cc1ccc2[nH]c(CSc3nnc(NC(=O)COc4ccccc4F)s3)cc(=O)c2c1 0%
CCOc1ccc(-c2cc3c(=O)n(CC(=O)Nc4c(C)cccc4C)ccn3n2)cc1 0%
Fc1ccc(-c2csc(-c3nc(-c4ccc(Br)s4)cs3)n2)cc1 2.49%
Cc1ccc(Cl)cc1NC(=O)/C(C#N)=C/c1c(C)n(Cc2ccccc2)c2ccccc12 12.4%
CC1CCCCN1C(=O)CSc1nnc(-c2cccc(Cl)c2)o1 (configuration not stated) 1.74%
CC(=O)N1CCCc2cc(S(=O)(=O)N(C)CC(=O)Nc3ccc(F)c(Cl)c3)ccc21 -16.6%
CCOc1ccc(NC(=O)CCCN2C(=O)C(c3ccccc3)Oc3cccnc32)cc1 (configuration not stated) -0.0942%
Cc1ccc(NC(=O)c2ccc3nc(Cc4ccccc4)oc3c2)cc1F 5.1%
CCN(CC)c1ccc2cc(-c3nnc(-c4cccc(Cl)c4)o3)c(=O)oc2c1 2.87%
Cc1csc2nc(-c3cccc(NC(=O)c4cccc(F)c4)c3)cn12 -8.07%
Cc1ccc(NC(=O)c2ncn(-c3ccccc3)n2)c(Cl)c1 4.48%
Cc1cccc(-c2noc(CN(C(=O)c3ccc(C)c(C)c3)C(C)C)n2)c1 -1.34%
COc1ccc(C)cc1N(C)C(=O)c1sc2nc3n(c(=O)c2c1C)CCCCC3 3.34%
CCOc1ccc(CCNC(=O)C2=C(C)C(=O)OC23CCC(C)CC3)cc1OCC (configuration not stated) 2.2%
CCCCCn1c(=O)[nH]c2cc(C(=O)NCc3ccc(C)cc3)ccc2c1=O 8.63%
COc1cccc(NC(=O)CSc2nc(-c3ccccc3)nc3c2Cc2cc(Cl)ccc2O3)c1 3.38%
Cc1ccc(C(=O)c2oc3ccccc3c2NC(=O)c2nc(S(C)(=O)=O)ncc2Cl)cc1F 0.607%
CCOC(=O)c1cccc(NC(=O)CC(c2ccc(F)cc2)N2Cc3ccccc3C2=O)c1 (configuration not stated) -4.83%
O=S(=O)(c1ccccc1)c1nc(-c2ccc(F)cc2)oc1N1CCOCC1 -0.237%
CCOc1cc(C#N)c(NC(=O)c2ccc(OC)c(S(=O)(=O)N3CCCC3)c2)cc1OCC -3.31%
CCCOc1ccc(OC(=O)c2sc3ncn(Cc4cccc(F)c4)c(=O)c3c2C)cc1 -0.738%
COc1ccccc1NC(=O)N(Cc1ccco1)C1CCN(C(C)=O)CC1 0.065%
Cc1nc2cc(-c3cccc(F)c3)nn2c(C)c1CCC(=O)N1CCN(c2ccc(F)cc2)CC1 2.45%
O=C(Cn1nnc2sc3c(c2c1=O)CCCC3)Nc1ccc(F)c(Cl)c1 11.5%
COc1cccc(NC(CNS(=O)(=O)c2ccc(C)cc2)c2ccccc2)c1 (configuration not stated) -2.82%
CCN1C(=O)c2ccccc2Sc2ccc(NC(=O)c3ccc(C)c(F)c3)cc21 -3.54%
Cc1ccccc1CNC(=O)CCCn1nc(C)c2sc3ccccc3c2c1=O -11.1%
CCc1c(C)nc2nncn2c1Nc1ccc(C)c(F)c1 -10.8%
Cc1cc(-c2ccc(C)c(S(=O)(=O)NCc3ccc(Cl)cc3)c2)on1 -2.03%
CCCS(=O)(=O)NCCc1csc2nc(-c3ccc(OC)cc3)nn12 0.199%
COc1ccccc1N(CC(=O)NCCSCc1ccc(Cl)cc1)S(C)(=O)=O -2.42%
CN(Cc1ccccc1)c1ncnc2c1nc1n2CCCC1 -0.265%
CCCCOc1cccc(C(=O)Nc2cccc3ccc(C)nc23)c1 -1.59%
COc1cc(OC)cc(C(=O)Nc2ccc3nc(N4CCC(C)CC4)cc(C)c3c2)c1 -2.35%
Cc1ccc(CS(=O)(=O)Cc2ccc(C(=O)NCCc3ccc(Cl)cc3)o2)cc1 2.57%
Cc1cc(C)c2c(=O)cc(C(=O)Nc3ccccc3Cl)oc2c1 0.711%
Cc1ccc2c(CC(=O)Nc3cc(C(F)(F)F)ccc3Cl)coc2c1C 4.34%
CCC12CN3CC(CC)(CN(C1)C3c1ccc(OCc3ccccc3)cc1)C2=O (configuration not stated) 4.66%
Cc1ccc2oc(=O)n(CCNC(=O)Nc3ccccc3Cl)c2c1 -8.25%
COc1ccc(C2CC(=O)Nc3c2c(=O)nc2c(C)cccn32)cc1 (configuration not stated) 0.707%
CCOC(=O)c1c(C)[nH]c(C)c1S(=O)(=O)N1CCC(C(=O)Nc2ccccn2)CC1 0.634%
O=c1oc2ccc(Br)cc2cc1-c1nc(-c2ccccc2)no1 0%
CCC(C)NC(=O)C1CCC(CNS(=O)(=O)c2cccc3nsnc23)CC1 (configuration not stated) 0.682%
CCS(=O)(=O)N1CC(=O)N(c2ccc(C)c(C)c2)C(C)(C(=O)NC2CCCCC2)C1 (configuration not stated) 0.165%
CCc1ccc(-c2nc3c(c(SCc4ccc(F)cc4)n2)Cc2c(CO)cnc(C)c2O3)cc1 -0.283%
COc1ccc(N2CCN(C(c3ccccc3)c3nnc(-c4ccccc4Cl)o3)CC2)cc1 (configuration not stated) -8.83%
Cc1cccc(NC(=O)CSc2nc3c(oc4ccccc43)c(=O)n2C(C)C)c1 -9.45%
COc1cccc(CNC(=O)Cn2ncc3c4ccccc4n(C)c3c2=O)c1 2.64%
COCCNC(=O)CCCn1c(SCC(=O)Nc2cccc(C)c2)nc2c(sc3ccccc32)c1=O -11.6%
CC1=C(C(=O)NCCc2ccc(Cl)cc2)C2(CCCCC2)OC1=O -19.7%
COc1ccc(C(=O)c2oc3ccccc3c2NC(=O)COc2c(C)cc(C)cc2C)cc1 -4.83%
COc1cccc(CNC(=O)c2c(O)nc3ccccn3c2=O)c1 0.266%
CCOc1ccc(N2CC(c3nc4ccccc4n3CC(C)C)CC2=O)cc1 (configuration not stated) -16.9%
COc1cc(-c2noc(-c3ccc(NCCc4ccccc4)c([N+](=O)[O-])c3)n2)cc(OC)c1OC -6.99%
COc1cc(NC(=O)CCNS(=O)(=O)c2ccc3c(c2)CCN3C(=O)C2CC2)cc(OC)c1 3.49%
COCC(=O)N1CCc2cc(OC)c(OC)cc2C1COc1ccc2c(C)cc(=O)oc2c1 (configuration not stated) 2.51%
Cc1ccc(C)c(N2CCN(C(=O)c3ccc4c(Cl)c5c(nc4c3)CCCC5)CC2)c1 -9.61%
CCc1ccccc1N1CC(c2nc3ccccc3n2Cc2cccc(C)c2)CC1=O (configuration not stated) 0.235%
O=C(Nc1sc2c(c1C(=O)NCc1ccccc1)CCCC2)c1cc(=O)c2cc(Cl)ccc2o1 -6.61%
